{"source": "paper PMC8245568", "about": "“Xyloglucan processing machinery in Xanthomonas pathogens and its role in the transcriptional activation of virulence factors” (Nature Communications, 2021)", "key": {"XacGalD": {"target": "T1, XacGalD (Xanthomonas citri, UniProt A0AAI7ZEX2)", "T1 construct": "gene XAC1772; recombinant in E. coli (pET28a or pETM11), purified; homotetramer, site completed by neighbouring protomer", "experiment": "X-ray crystal structure", "type": "binding", "details": "active site, completed by D562 of the neighbouring protomer"}, "XacXyl31 [1]": {"target": "T2, XacXyl31 (Xanthomonas citri, UniProt A0AAI8ESN9)", "T2 construct": "gene xylS; recombinant in E. coli (pET28a or pETM11), purified; domains described span residues 38-957", "experiment": "mass spectrometry of products", "type": "biochemical", "details": "pH 6.5, 45 °C"}, "XacXyl31 [2]": {"target": "T2, XacXyl31", "experiment": "X-ray crystal structure", "type": "binding", "details": "active site, -1 subsite"}}}
{"compound": "OC[C@H]1OC(O)[C@H](O)[C@@H](O)[C@H]1O", "note": "(stereo partly drawn) [D-galactose]", "values": [{"measurement": "X-ray crystal structure", "setting": "XacGalD", "value": "The crystal structure of XacGalD with D-galactose"}]}
{"compound": "OC[C@H]1OC(O)[C@H](O)[C@@H](O)[C@@H]1O[C@@H]1O[C@H](CO[C@H]2OC[C@@H](O)[C@H](O)[C@H]2O)[C@@H](O[C@@H]2O[C@H](CO[C@H]3OC[C@@H](O)[C@H](O)[C@H]3O)[C@@H](O)[C@H](O)[C@H]2O)[C@H](O)[C@H]1O", "note": "(stereo partly shown) [XXG]", "values": [{"measurement": "mass spectrometry of products", "setting": "XacXyl31 [1]; product GXG", "value": "the products of XacXyl31 using XXXG and XXG as substrates, respectively"}]}
{"compound": "OC[C@H]1OC(O)[C@H](O)[C@@H](O)[C@@H]1O[C@@H]1O[C@H](CO[C@H]2OC[C@@H](O)[C@H](O)[C@H]2O)[C@@H](O[C@@H]2O[C@H](CO[C@H]3OC[C@@H](O)[C@H](O)[C@H]3O)[C@@H](O[C@@H]3O[C@H](CO[C@H]4OC[C@@H](O)[C@H](O)[C@H]4O)[C@@H](O)[C@H](O)[C@H]3O)[C@H](O)[C@H]2O)[C@H](O)[C@H]1O", "note": "(stereo partly shown) [XXXG]", "values": [{"measurement": "mass spectrometry of products", "setting": "XacXyl31 [1]; product GXXG", "value": "the products of XacXyl31 using XXXG and XXG as substrates, respectively"}]}
{"compound": "OC1OC[C@@H](O)[C@H](O)[C@H]1O", "note": "(stereo partly shown) [xylose]", "values": [{"measurement": "X-ray crystal structure", "setting": "XacXyl31 [2]", "value": "7KNC (XacXyl31 complexed with xylose)"}]}
